# This is one part of the list.
# Biological target: T1, OsWOX13 (Oryza sativa, UniProt Q5QMM3 1-267)
# T1 sequence: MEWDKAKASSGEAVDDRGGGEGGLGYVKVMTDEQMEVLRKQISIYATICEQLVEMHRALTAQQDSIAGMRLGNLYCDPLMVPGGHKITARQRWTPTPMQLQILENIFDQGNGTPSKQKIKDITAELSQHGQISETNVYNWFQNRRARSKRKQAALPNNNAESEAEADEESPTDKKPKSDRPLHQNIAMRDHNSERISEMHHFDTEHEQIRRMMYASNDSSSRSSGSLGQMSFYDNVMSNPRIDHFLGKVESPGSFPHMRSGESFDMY
# Assay: protein-binding microarray (RPBM); PBS, 2% BSA, 51.3 ng/ul salmon testes DNA, 50 uM zinc acetate, 200 nM TF, 25 C, 1 h; high values mean tight binding
# Settings: protein: recombinant; tags: N-terminal polyhistidine and DsRed monomer fusion (pET32a); label: CyDye5-dUTP incorporated in the synthesized complementary strand; 3' TTTTT single-stranded linker to array surface; dsDNA, one strand shown
# Outline: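 Binding signal is defined as the fluorescence intensity of each feature in arbitrary units, read on an Axon 4000B scanner. Transcription factors with N-terminal polyhistidine and DsRed fusions came from E. coli BL21-CodonPlus and were purified on Ni–NTA. They were incubated at 200 nM for 1 h at 25 °C on a custom Agilent array that had been made double-stranded with Cy5-dUTP, with 50 µM zinc acetate present, and the array was washed.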
row,Sequence,binding signal
1,ACTTATAAAACTAATTATATAAATAAAAGCTAATTCGGCGCGGAGTCACCTAGTGCAG,4700 fluorescence intensity (a.u.)
2,TATTTTCCCAATTTAAAAGTAATAGATAGTTAGAATTACACGGAGTCACCTAGTGCAG,3480 fluorescence intensity (a.u.)
3,TGCAGGTGATTGCAGTTAACACAACCAGTCGAGCGCATTACGGAGTCACCTAGTGCAG,30300 fluorescence intensity (a.u.)
4,CAACATAACTACTCTAATATATCAATTTATGTAGATAATGCGGAGTCACCTAGTGCAG,3320 fluorescence intensity (a.u.)
5,CCTCATTGATATGTACTACTGGAATCAAGCAGCGTTGTGGCGGAGTCACCTAGTGCAG,4350 fluorescence intensity (a.u.)
6,GATAATTTGTTATAGATCCCTGGTCCTTAGTTCTAACGTTCGGAGTCACCTAGTGCAG,31600 fluorescence intensity (a.u.)
7,GGTTGACAGGTAGGGCCCACGATGACTCAGCAGCCACGTACGGAGTCACCTAGTGCAG,17900 fluorescence intensity (a.u.)
8,GGTAATGGGAGAGGCTGATGTGGCGTGAAATCTCTTGCGTCGGAGTCACCTAGTGCAG,5880 fluorescence intensity (a.u.)
9,TTGCTAATTTTGTTCCCTTGGAAACGGCCGAACAGTTTTGCGGAGTCACCTAGTGCAG,12900 fluorescence intensity (a.u.)
10,CTCTACTCGCCAATTTTCCCTTCTTATTTTCGCTATTTCTCGGAGTCACCTAGTGCAG,3170 fluorescence intensity (a.u.)
11,ACCAAAACAATCTTAAATTTAAAGTTTGACTTTTAAGAACCGGAGTCACCTAGTGCAG,4460 fluorescence intensity (a.u.)
12,TATGGTTTGATTAGATTTAAGAACTTGTTTTGGTCTCTATCGGAGTCACCTAGTGCAG,27400 fluorescence intensity (a.u.)
13,TGAAATTTCTCTTCATTTTGTTTTAAATCCTGGACAGACACGGAGTCACCTAGTGCAG,3370 fluorescence intensity (a.u.)
14,TTACTTGTAGATTGGTGCTATAATATCTGGTATTCAACCTCGGAGTCACCTAGTGCAG,5570 fluorescence intensity (a.u.)
15,ATAAATATTACTATAATTTATTACAAATCAAATTTGAATTCGGAGTCACCTAGTGCAG,11100 fluorescence intensity (a.u.)
16,TATACATGCAATCATTTCAAATCTCAATGGTTATATGACCCGGAGTCACCTAGTGCAG,4290 fluorescence intensity (a.u.)
17,AGAAAATTAATGTTCAACAAACTCGTCACAAATTAAGTTTCGGAGTCACCTAGTGCAG,13600 fluorescence intensity (a.u.)
18,ACTCTGATTAAAGTCAAACTGTTTTAAGTTTAACTAAGTTCGGAGTCACCTAGTGCAG,23800 fluorescence intensity (a.u.)
19,TCCGTGATTAGCCATAAGTGCTACAGTAACCCACATGTGCCGGAGTCACCTAGTGCAG,35800 fluorescence intensity (a.u.)
20,ATATATATATATATATGTATATGTATATGTATATGTATATCGGAGTCACCTAGTGCAG,3220 fluorescence intensity (a.u.)
21,ATAAATTACTTTTCGTTTGCAAATATGCTGTTTGAATAAGCGGAGTCACCTAGTGCAG,13300 fluorescence intensity (a.u.)

row,Sequence,binding signal
1,TATCCCAATTGATTTGTAAAGGTGTTCATTTACAACACACCGGAGTCACCTAGTGCAG,24600 fluorescence intensity (a.u.)
2,CGATCCAATTACGTCTCTCTCATTTCCAAATGAGGCACGCCGGAGTCACCTAGTGCAG,8010 fluorescence intensity (a.u.)
3,AATAAATTGATTGTAACCCTCTTACTTATCTGAATAGAGACGGAGTCACCTAGTGCAG,22200 fluorescence intensity (a.u.)
4,GGGCCTTAATTACGACGTTTACCCTTGGCCATCGAAGACACGGAGTCACCTAGTGCAG,6410 fluorescence intensity (a.u.)
5,CACAGTAATTTTCCTAAAAGAATGATAGGTGTCACGCACTCGGAGTCACCTAGTGCAG,8360 fluorescence intensity (a.u.)
6,CAGCTTGTTAATTTGTTATTGCTGCCGAACAGAAACCTATCGGAGTCACCTAGTGCAG,4730 fluorescence intensity (a.u.)
7,TAGAGATTAAAACTCAATTAATTATACGTTAATGGCTTTCCGGAGTCACCTAGTGCAG,12300 fluorescence intensity (a.u.)
8,AATTAATTAAATTAATAAGGGAAGCACGTCGGCGTAATCCCGGAGTCACCTAGTGCAG,40900 fluorescence intensity (a.u.)
9,CCTAGATTGCGCCGCACCACGCCACCACGTACGCACGCGTCGGAGTCACCTAGTGCAG,9000 fluorescence intensity (a.u.)
10,AAAATTATTTAATCGAAAGGAGCCCGCTAGTTGTTTCACACGGAGTCACCTAGTGCAG,3320 fluorescence intensity (a.u.)
11,TTAATGTGTATGTCATGTAATTGAACATAAACACTACTGTCGGAGTCACCTAGTGCAG,5900 fluorescence intensity (a.u.)
12,CATGATGATAGAGGATCTCGTTAAAATCTCCCACTACCAACGGAGTCACCTAGTGCAG,7480 fluorescence intensity (a.u.)
13,GTGATTTGATCTCGCTGCTGATATTGCTCCCTCATCCCAACGGAGTCACCTAGTGCAG,10300 fluorescence intensity (a.u.)
14,TACCGATAATTTGTTATAGATCCCTAGACGTACATTCCTCCGGAGTCACCTAGTGCAG,19900 fluorescence intensity (a.u.)
15,TAATAATTCTAATAATTTATCAACATGTGTATATCAAATTCGGAGTCACCTAGTGCAG,3880 fluorescence intensity (a.u.)
16,TAAATAATTGTACAGAATCGTTAGGATACATTATATCTGTCGGAGTCACCTAGTGCAG,6300 fluorescence intensity (a.u.)
17,GTTTACACGAGGGAATTGATGATGAGATTAAGATGAGAATCGGAGTCACCTAGTGCAG,7140 fluorescence intensity (a.u.)
18,ATAATTTGATTATCCGAATATTCCATTTCCATCCCAATTTCGGAGTCACCTAGTGCAG,29800 fluorescence intensity (a.u.)
19,TTGCTATTTGTTGGTTTGATTTATTGCTACTGCAACAGATCGGAGTCACCTAGTGCAG,3880 fluorescence intensity (a.u.)
20,CGGTTTAGTGATAGGAATCAAATTAGAGTCAAAGTGAACTCGGAGTCACCTAGTGCAG,11300 fluorescence intensity (a.u.)
21,ATCGGAAATGGGCCAATCATATTTCCATGCTTTACGTGGACGGAGTCACCTAGTGCAG,8160 fluorescence intensity (a.u.)
